In PubChem BioAssay AID624202 (National Center for Advancing Translational Sciences (NCATS), 2012):
Among all 380,000 compounds or so, about 4,000 (1.1%) were called active. The shares of active, inactive and inconclusive entries below differ from those in the screen. Calls come from the whole dose curve; as a rule, active = well fitted activation curve with a large enough effect; inconclusive = small, poorly fitted or top-dose-only effect; inactive = no such curve, though single readings can be large or run the other way. Where the call is inconclusive, the potency comes from a doubtful curve fit.

experiment: qHTS Assay to Identify Small Molecule Activators of BRCA1 Expression; settings: MCF7-BRCA1-FFLuc reporter, luminescence, 48 h; activation: at 46.1 µM (top of the series), scaled: vehicle 0%, 10 µM genistein 100% unless noted; note: nearly all actives have a fitted effect of over 80% in size
Summary of the method: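 Quantitative HTS in MCF7 cells stably reporting BRCA1 expression via firefly luciferase. Compound treatment lasts 48 h at 37 °C in phenol-red free MEM. Activation is expressed relative to genistein at 10 microM and DMSO.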
Potency is the fitted concentration of half-maximal effect; tags give direction and shape of the fitted curve.

SMILES | Potency
COc1ccc(-c2noc(-c3cccc(OC)c3OC)n2)cc1OC | active: 3.98 µM
O=C(Cc1ccccc1)Nc1ccc(N2CCCCC2)cc1 | inconclusive: 0.562 µM [activator, full curve, poor fit]
CC(C)(C)C(=O)NC(=S)Nc1sc2c(c1C(N)=O)CCC2 | inconclusive: 22.4 µM [activator, single point]
O=S(=O)(c1cccc(Br)c1)N1CCN(c2nc(-c3cccs3)nc3ccccc23)CC1 | inactive
CCC1CCC(NC(=O)Nc2cccc(OC)c2)CC1 (stereo not drawn) | inconclusive: 3.16 µM [activator, partial curve, poor fit]
Cc1ccc(-c2nc(-c3cccnc3)no2)c(C)c1 | active: 6.31 µM
c1ccc(-c2cnnc(N3CCCCC3)n2)cc1 | active: 7.94 µM
c1ccc(OCCSc2ncnc3nc[nH]c23)cc1 | active: 8.91 µM
Cc1cccc(NC(=O)c2ccc(N3CCCCC3)c([N+](=O)[O-])c2)n1 | inconclusive: 2.24 µM [activator, partial curve, poor fit]
CC(=O)C1=C(O)C(=O)N(Cc2cccnc2)C1c1ccccc1Cl (stereo not drawn) | inactive
Cc1cccc(/C(N)=N/OC(=O)c2ccco2)c1 | inconclusive: 2.24 µM [activator, full curve, poor fit]
CCCC(=O)Nc1ccc(-c2nc3cc(C)c(C)cc3o2)c(O)c1 | inconclusive: 20 µM [activator, partial curve, poor fit]
C/C(=N\Nc1ccc(Cl)c(C(=O)O)c1)c1ccc2c(c1)OCO2 | inconclusive: 14.1 µM [activator, partial curve, poor fit]
CCOc1ccc(C(=O)c2cccs2)cc1 | inconclusive: 15.8 µM [activator, partial curve, poor fit]
CC(=Nc1ccc(C)c(C)c1)C1=C(O)CSC1=O | inconclusive: 17.8 µM [activator, single point]
CCOc1ccc2nc(NC(=O)c3cnccn3)sc2c1 | inconclusive: 1.41 µM [activator, full curve, poor fit]
CN(C)c1ccc(-c2ccc3oc(-c4ccsc4)cc(=O)c3c2)cn1 | inconclusive: 1.12 µM [activator, full curve, poor fit]
CCOC(=O)c1ccc(NC(=O)C2CCN(S(=O)(=O)c3ccccc3)CC2)cc1 | inactive
O=C(CSCc1ccccc1F)NCc1ccccc1 | active: 7.08 µM
CC1CCC(NC(=O)c2cc3ccccc3cc2O)CC1 (stereo not drawn) | inconclusive: 2.51 µM [activator, full curve, poor fit]
Cc1cc(N2C(=O)C(O)=C(C(=O)c3ccc(C)o3)C2c2cccs2)no1 (stereo not drawn) | inactive
O=C(CSCc1ccccc1F)NCc1ccc(F)cc1 | inconclusive: 12.6 µM [activator, partial curve, poor fit]
Cc1sc2ncnc(N3CCC(C(=O)Nc4ccc(OC(F)F)c(Cl)c4)CC3)c2c1C | inactive
CN(C)c1ccc(/C=N/NC(=O)c2ccccc2Cl)cc1 | inconclusive: 11.2 µM [activator, partial curve, poor fit]
Cc1snc(SCC(=O)c2ccc(Cl)cc2)c1C#N | inactive

SMILES | Potency
CCOC(=O)COc1ccc(Br)cc1/C=C\c1[nH]c(=O)[nH]c(=O)c1[N+](=O)[O-] | inconclusive: 35.5 µM [activator, single point]
NC1=NC(=O)C(c2ccccc2)C(=O)N1 (stereo not drawn) | inactive
COc1ccccc1OCC(=O)Nc1nc(C)c(C)s1 | inconclusive: 3.16 µM [activator, full curve, poor fit]
O=C(Nc1ccc2c(c1)OCO2)c1cccc(F)c1 | active: 11.2 µM
O=C(O)c1ccc(/C=N/Nc2ccc(C(F)(F)F)cn2)cc1 | inconclusive: 1.58 µM [activator, partial curve, poor fit]
COc1ccc(/C=N/Nc2nc3ccccc3o2)cc1OC | inconclusive: 1.58 µM [activator, full curve, poor fit]
C=CCNc1nc(N)c(C(=O)Nc2cc(C)on2)s1 | inconclusive: 7.08 µM [activator, partial curve, poor fit]
CCCn1nnc(NC(=O)C(C)C)n1 | inactive
Cc1nn(CCOc2ccccc2)c(=O)n1-c1ccc(F)cc1 | active: 12.6 µM
Cc1ccc(-c2nc3ccc(Cl)cn3c2Cc2ccsc2)cc1 | inconclusive: 6.31 µM [activator, partial curve, poor fit]
N#CCSc1ccc(-c2nc3ccccc3[nH]2)cn1 | inconclusive: 1.58 µM [activator, full curve, poor fit]
CN(C)c1cnn(-c2ccccc2)c(=O)c1Cl | inconclusive: 31.6 µM [activator, single point]
CCc1nnc(NC(=O)CSc2nc3c(cc2C#N)CCCC3)s1 | inconclusive: 0.562 µM [activator, full curve, poor fit]
Fc1cc(Br)ccc1NC(=S)Nc1ccccc1 | inconclusive: 11.2 µM [activator, partial curve, poor fit]
Cc1ccc2nc(NC(=O)COC(=O)c3ccncc3)sc2c1 | active: 8.91 µM
O=C(Cc1cccc2ccccc12)Nc1ccc2oc(-c3ccccc3)nc2c1 | active: 11.2 µM
COc1cccc(OCc2nc3ccccc3[nH]2)c1 | inconclusive: 11.2 µM [activator, partial curve, poor fit]
O=C(N/N=C/c1ccoc1)c1ccccc1F | inconclusive: 17.8 µM [activator, partial curve, poor fit]
Cc1ccc(C(c2nc3ccccc3[nH]2)n2c(-c3ccccc3)nc3ccccc32)cc1 (stereo not drawn) | active: 4.47 µM
O=C(Nc1ccccc1)c1ccc(OC(=O)c2cc3ccccc3o2)cc1 | inconclusive: 17.8 µM [activator, single point]
C=CCOc1ccc2c(OC)c3ccoc3nc2c1OC | inconclusive: 11.2 µM [activator, partial curve, poor fit]
Cc1cccc(NC(=O)C2C3CCCCC32)c1 (stereo not drawn) | active: 10 µM
Cc1ccc(Sc2ncccc2COC(=O)NC(C)C)cc1 | inconclusive: 8.91 µM [activator, partial curve, poor fit]
CCc1ccc(/C=C2\SC(=S)N(CCCC(=O)NCCCN3CCOCC3)C2=O)cc1 | inactive
Cc1ccccc1OCCCn1c(=O)sc2ccccc21 | inconclusive: 35.5 µM [activator, single point]

SMILES | Potency
Cc1ccccc1NC(=O)Cc1nc(COC(=O)c2ccc(Cl)c(S(N)(=O)=O)c2)cs1 | inactive
Nc1ccc(N=Nc2ccccc2)c(N)n1 | inconclusive: 12.6 µM [activator, partial curve, poor fit]
C/C(N)=C(/C#N)C(=O)CSc1nnc(NC(C)C)s1 | inconclusive: 12.6 µM [activator, partial curve, poor fit]
O=C(Cc1ccccc1[N+](=O)[O-])NCc1ccc2c(c1)OCO2 | inconclusive: 3.55 µM [activator, full curve, poor fit]
Cn1c2ccccc2c(=O)c2ccc(F)cc21 | inconclusive: 15.8 µM [activator, partial curve, poor fit]
CCOC(=O)COn1c(-c2cccc(Cl)c2)nc2ccc([N+](=O)[O-])cc21 | active: 7.08 µM
N/C(=N\OC(=O)c1ccc2c(c1)OCO2)c1cccc([N+](=O)[O-])c1 | inconclusive: 15.8 µM [activator, single point]
O=C(Nc1nc(-c2cccs2)cs1)C1=COCCO1 | active: 3.98 µM
CCOc1ccc2oc(C(=O)OCC(=O)NC(=O)NC)c(C)c2c1 | inactive
CC(C)C1C(=O)Nc2ccc(S(=O)(=O)NCCc3ccc(Cl)cc3)cc21 (stereo not drawn) | inactive
CCC(NC(=O)c1ccccc1NC(=O)c1ccc(C)cc1)C(=O)O (stereo not drawn) | inconclusive: 35.5 µM [activator, single point]
COc1ccc(NC(=O)c2ccc3nccnc3c2)cc1 | active: 2.82 µM
NC(=O)C1CCN(CC(=O)N2N=CCC2c2ccccc2)CC1 (stereo not drawn) | inconclusive: 20 µM [activator, partial curve, poor fit]
Cc1ccc(Oc2nccc(-c3ccc(Cl)cc3)n2)cc1 | inconclusive: 12.6 µM [activator, single point]
Cc1[nH]n(-c2ccccc2)c(=O)c1N=Nc1ccc2c(c1)OCCO2 | inconclusive: 15.8 µM [activator, partial curve, poor fit]
COc1ccc(-c2cc(-c3ccc(C)cc3)n[nH]2)c(O)c1 | inconclusive: 3.16 µM [activator, full curve, poor fit]
CCCn1nnc(NC(=O)c2ccccc2Br)n1 | inconclusive: 12.6 µM [activator, partial curve, poor fit]
OC(COc1ccc2ccccc2c1Cl)CN1CCOCC1 (stereo not drawn) | inconclusive: 35.5 µM [activator, single point]
COC(=O)c1[nH]c2ccc(Br)cc2c1NC(=O)Oc1ccccc1 | inconclusive: 10 µM [activator, partial curve, poor fit]
CN(C)S(=O)(=O)c1cccc(C(=O)Nc2ccc3c(c2)CCC3)c1 | inconclusive: 2.51 µM [activator, full curve, poor fit]
O=C(NC(=S)Nc1cccnc1)c1cccc(Br)c1 | inactive
COc1ccccc1/C=C1\C(=O)Nc2ccccc21 | inactive
Cc1cnc2nc(-c3ccccc3)ccc2c1 | inconclusive: 0.562 µM [activator, full curve, poor fit]
